Measurements published in PubChem BioAssay AID1460 (National Center for Advancing Translational Sciences (NCATS), 2008).
In all, about 270,000 compounds went through this assay and about 5,800 (2.1%) were called active. This list was built around the results that the source calls inconclusive (neither active nor inactive); the mix of calls is not that of the screen. The call rests on the fitted dose curve; in most records, active means well fitted inhibition curve with a large enough effect; inconclusive means small, poorly fitted or top-dose-only effect; inactive means flat fitted curve, though single readings scatter. Where the call is inconclusive, the potency comes from a doubtful curve fit.

target: Microtubule-associated protein tau (Homo sapiens) (UniProt P10636); test: qHTS for Inhibitors of Tau Fibril Formation, Thioflavin T Binding; details: recombinant tau K18 P301L, heparin-induced fibrillization, ThT fluorescence; series mostly up to 57.4 µM; further: nearly all actives have a fitted effect of over 55% in size
UniProt P10636, sequence (P10636 whole entry, looked up): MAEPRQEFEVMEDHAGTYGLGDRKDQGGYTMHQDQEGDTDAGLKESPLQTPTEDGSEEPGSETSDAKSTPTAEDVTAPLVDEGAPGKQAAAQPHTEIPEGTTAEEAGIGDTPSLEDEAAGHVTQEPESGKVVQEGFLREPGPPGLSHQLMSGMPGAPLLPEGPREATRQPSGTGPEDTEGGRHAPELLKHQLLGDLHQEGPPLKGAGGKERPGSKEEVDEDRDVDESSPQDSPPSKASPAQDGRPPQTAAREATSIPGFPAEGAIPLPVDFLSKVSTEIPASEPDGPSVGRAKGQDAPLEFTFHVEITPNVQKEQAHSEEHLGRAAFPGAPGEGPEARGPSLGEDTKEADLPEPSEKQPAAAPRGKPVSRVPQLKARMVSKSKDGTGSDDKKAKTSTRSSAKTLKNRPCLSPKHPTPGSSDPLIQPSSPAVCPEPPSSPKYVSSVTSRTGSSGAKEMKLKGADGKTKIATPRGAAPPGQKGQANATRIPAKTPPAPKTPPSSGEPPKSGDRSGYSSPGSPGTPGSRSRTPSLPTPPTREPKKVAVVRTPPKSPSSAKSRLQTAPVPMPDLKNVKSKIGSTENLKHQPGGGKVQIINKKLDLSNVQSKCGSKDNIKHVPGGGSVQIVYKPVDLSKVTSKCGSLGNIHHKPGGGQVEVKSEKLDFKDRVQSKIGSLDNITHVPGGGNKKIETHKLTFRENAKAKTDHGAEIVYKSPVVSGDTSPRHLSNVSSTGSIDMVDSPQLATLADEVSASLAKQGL
Outline: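 ThT emission at 510 nm, taken 1 hr after adding 30 uM dye, quantifies aggregates formed when 20 uM heparin acts on human tau K18 P301L for 6 hr at 37 C.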
On the % scale 0 is the no-effect control and ±100 the full control effect; potency means the concentration at half of the fitted maximal effect; tags describe the fitted curve by direction and shape.

Compound	Potency	activity, negative = inhibition
CCOc1ccc(C2=Nn3cnnc3SC2)cc1	inconclusive: 35.5 µM [inhibitor, single point]	
CCN1C(=O)[C@H]2[C@H]3[C@H](O)[C@H](O)C/C(=N/OC[C@@H](C)[C@H](OCc4ccccc4)C(C)C)[C@@H]3CC[C@@H]2C1=O		inactive: -2.46% [at 11.5 µM]
O=C(O)[C@H](CSCc1ccccc1)NS(=O)(=O)c1ccc(F)cc1	inactive	
COc1ccccc1/C=C/C=C1\Oc2c(ccc(O)c2CN2CCN(CCO)CC2)C1=O	inconclusive: 14.1 µM [inhibitor, partial curve]	
Cc1cc(-c2n[nH]c(=S)n2/N=C/c2ccc(C)s2)n[nH]1	inactive	
Cc1ccc(Nc2nc(CSc3nnc(-c4cccs4)o3)cs2)cc1	inconclusive: 3.98 µM [inhibitor, full curve]	
O=C(O)c1ccc(NCc2nc3ccccc3n2CCOc2ccccc2Cl)cc1	inconclusive: 14.1 µM [inhibitor, partial curve]	
Cc1onc(-c2ccccc2Cl)c1NC(=O)NCc1cccs1	inactive	
CCC/C(O)=C1\C(=O)CC(C)(C)CC1=Nc1ccc(OC)cc1OC	inactive	
O=c1cc(-c2ccccc2O)oc2c(O)c(O)ccc12	active: 11.2 µM	
Cc1nc(-c2ccc(Cl)cc2)sc1CCNC(=O)C(=O)Nc1ccc2c(c1)OCCO2	inconclusive: 0.398 µM [inhibitor, full curve]	
C=CCN1c2ccccc2[C@]23C[C@@H](C(=O)OC)N(S(=O)(=O)c4ccc(Br)cc4)C2=NC(C(=O)OC)=C(C(=O)OC)[C@H]13		inactive: 3.42% [at 11.5 µM]
Cc1ccc(C)c(NC(=S)NNC(=O)c2cc3c(s2)CCC(C)C3)c1 (centres undefined)	inconclusive: 20 µM [inhibitor, partial curve]	
CC1(C)CO[C@H](CC(=O)O)CN1	inactive	
CC(=O)c1ccc(NC(=O)c2cccs2)cc1	inconclusive: 28.2 µM [inhibitor, partial curve]	
CSc1ncc(Cl)c(C(=O)Nc2cc(C(F)(F)F)ccc2Cl)n1	inactive	
CC(=O)OCC1(C)CN(c2ccccc2)NC1=O (centres undefined)	inconclusive: 39.8 µM [inhibitor, single point]	
COc1ccc(NC(=O)c2cc(C(C)=O)n3ccccc23)cc1	inactive	
N#CC1=C(N)SC(N)=C(C#N)C1c1cccc(Oc2ccccc2)c1	inconclusive: 12.6 µM [inhibitor, partial curve]	
CC(C)CCNC(=O)C1CCN(c2nnc(-n3cccc3)s2)CC1	inconclusive: 7.08 µM [inhibitor, full curve]	
Cc1ccc(CN2CCC(CNC(=O)c3cnn(-c4ccccc4)c3C3CCN(C(=O)OC(C)(C)C)CC3)CC2)cc1	inactive	
COc1ccc(NS(=O)(=O)c2ccc(C)cc2)c([N+](=O)[O-])c1	inactive	
Cc1ccc(C)c(N2CCN(C(=O)CCCn3c(=S)[nH]c4cc5c(cc4c3=O)OCO5)CC2)c1	inconclusive: 0.251 µM [inhibitor, full curve, poor fit]	

Compound	Potency	activity, negative = inhibition
Cc1cc(N2CCN(c3ccccc3)CC2)nc(-n2nc(C)cc2C)n1	inconclusive: 7.94 µM [inhibitor, partial curve]	
O=c1c(N2CCN(c3ccccc3)CC2)csc2ccc(Cl)cc12	active: 12.6 µM	
COc1ccc(-c2[nH]ncc2CN2CCN(c3ccc(F)cc3)CC2)cc1	inconclusive: 17.8 µM [inhibitor, partial curve]	
COC(=O)[C@@H]1C[C@@]2(O)[C@@H](O)[C@@H](O)[C@@H](O)C[C@H]2N1Cc1cc(F)ccc1F	inactive	
O=C(CCSCc1cccc(Cl)c1)NCc1ccccc1Cl	inactive	
COc1ccc(NC(=O)CSc2nc3c(cc2C#N)CN(C)CC3)cc1	inconclusive: 14.1 µM [inhibitor, partial curve]	
Cc1nnc(NC(=O)CCN2C(=O)/C(=C\c3ccccc3)SC2=S)s1	inconclusive: 2.51 µM [inhibitor, partial curve, poor fit]	
CC1C/C(=C/c2ccccn2)C(=O)/C(=C/c2ccccn2)C1 (centres undefined)	active: 10 µM	
COc1ccc(NS(=O)(=O)c2ccc(N/N=C/c3ccc(N4CCOCC4)cc3)c([N+](=O)[O-])c2)cc1	inconclusive: 4.47 µM [inhibitor, partial curve]	
O=C(NCc1ccccn1)c1ccc2c(c1)N(Cc1ccccc1)CCS2	inconclusive: 39.8 µM [inhibitor, single point]	
Cc1[nH]c2ccccc2c1N=Nc1ccc(F)cc1	active: 12.6 µM	
COc1cc(C(c2nnnn2C(C)(C)C)N2CCN(c3nc4ccccc4s3)CC2)ccc1O (centres undefined)	inconclusive: 15.8 µM [inhibitor, partial curve]	
COc1ccc(C(=O)COC(=O)CCn2nnc(-c3cccc(O)c3OC)n2)cc1	inconclusive: 0.501 µM [inhibitor, full curve]	
CCN(CC)c1cc(C)c2cc(NC(=O)/C=C/c3ccccc3Cl)ccc2n1	active: 3.55 µM	
N#CCC(=O)N/N=C/c1ccc(OC2CSC2)cc1	inconclusive: 25.1 µM [inhibitor, single point]	
Cc1nn(-c2ccccc2)c(C)c1/C=N/NC(=O)c1cc(C2CC2)[nH]n1	inconclusive: 1.12 µM [inhibitor, full curve]	
Cn1cccc1/C=C1\Cc2ccccc2C1=O	inconclusive: 8.91 µM [inhibitor, partial curve]	
COc1ccc(N(C)C(=O)c2nn(-c3ccc(C)cc3)c(=O)n(C)c2=O)c(OC)c1	inactive	
O=C1C(NS(=O)(=O)c2cccs2)=C(N2CCN(c3cccc(C(F)(F)F)c3)CC2)C(=O)c2ccccc21	active: 4.47 µM	
CCCC(=O)NCCc1cc2cc(C)c(C)cc2[nH]c1=O	inconclusive: 17.8 µM [inhibitor, partial curve]	
O=C(CCc1ccc(O)cc1)N/N=C/c1coc2ccccc2c1=O	inconclusive: 15.8 µM [inhibitor, partial curve]	
COc1cc2cc(/C=C/C(=O)c3ccco3)c(Cl)nc2cc1OC	inconclusive: 12.6 µM [inhibitor, partial curve]	
COCC(C)n1c(-c2ccc3c(c2)NC(=O)CO3)csc1=Nc1ccc(OC(F)F)cc1 (centres undefined)	inconclusive: 10 µM [inhibitor, partial curve]	

Compound	Potency	activity, negative = inhibition
Cc1ccc(S(=O)(=O)N2CCOCC2)cc1NC(=O)CN1CCC(Cc2ccccc2)CC1	inconclusive: 39.8 µM [inhibitor, single point]	
Cc1ccc(S(=O)(=O)N2CCc3cc(C(=O)N(C)Cc4ccccc4)ccc32)cc1	inconclusive: 4.47 µM [inhibitor, single point]	
Nc1nn(-c2ccccc2)c(N)c1N=Nc1ccccc1	active: 5.01 µM	
CCc1sc(Nc2cccc(C)c2)nc1-c1cc2cccc(OC)c2oc1=O	inconclusive: 7.08 µM [inhibitor, partial curve]	
COC(=O)c1ccccc1NC(=S)NC(=O)COc1ccccc1	inconclusive: 25.1 µM [inhibitor, partial curve, poor fit]	
CCCCC1=CC2=C(c3ccco3)C(=O)C(C)(OC(=O)c3ccc(OC)cc3)C(=O)C2=CN1CCc1ccccn1 (centres undefined)	inconclusive: 14.1 µM [inhibitor, partial curve]	inactive: -6.85% [at 11.5 µM]
N#CCCn1cc(C(=O)Nc2ccc([N+](=O)[O-])cc2)c(-c2cccs2)n1	inconclusive: 12.6 µM [inhibitor, partial curve]	
Cc1cc(C)c2nc(NC(=O)c3ccc4c(=O)n5c(nc4c3)CCCCC5)sc2c1	inconclusive: 10 µM [inhibitor, partial curve]	
CC(=O)Nc1cccc(NC(=O)CSc2ncc(-c3ccc(Cl)cc3)n2Cc2ccco2)c1	inconclusive: 39.8 µM [inhibitor, single point]	
Cc1nn(-c2nc3ccccc3[nH]2)c(=O)c2ccccc12	inactive	
COc1ccc(CCN2CCC(CNC(=O)c3cnn(-c4ccc(C)cc4)c3C3CCN(C(=O)OC(C)(C)C)CC3)CC2)cc1	inactive	
CC(=O)Nc1ccc(S(=O)(=O)NCc2ccc3[nH]c(C)cc3c2)cc1	inconclusive: 15.8 µM [inhibitor, partial curve]	
O=C(CNC(=O)c1ccccc1C(=O)O)c1ccccc1	inactive	
CCCc1nc2c(c(=O)c3ccccc3n2C)c(=O)n1-c1cc(C)cc(C)c1	inconclusive: 39.8 µM [inhibitor, single point]	
Cc1ccc(SCCC(=O)NCc2ccco2)cc1	inactive	
O=C(Cc1ccc(Cl)cc1)Nc1ncc([N+](=O)[O-])s1	inconclusive: 17.8 µM [inhibitor, partial curve]	
N#Cc1c(NC(=O)CCC(=O)O)sc2c1CCCC2	inactive	
Cc1ccc(OCc2ccc(Br)cc2)c([N+](=O)[O-])n1	inconclusive: 39.8 µM [inhibitor, single point]	
COc1ccc(-c2nc(C)c(CCNC(=O)C(=O)Nc3ccccc3F)s2)cc1	inconclusive: 0.794 µM [inhibitor, full curve]	
O=C1NCCN(Cc2ccc(F)cc2)C1CC(=O)N1CC=C(c2ccccc2)CC1 (centres undefined)	inconclusive: 22.4 µM [inhibitor, single point]	
COc1cc(-c2oc3cc(O)ccc3c(=O)c2O)ccc1O	inconclusive: 2.51 µM [inhibitor, full curve]	
CC(C)CN(C(=O)COC(=O)Cc1c[nH]c2ccccc12)C1CCS(=O)(=O)C1 (centres undefined)	inactive	
